Experimental data: PubChem BioAssay (NCI)
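48-hour exposure; five concentrations; linearly interpolated endpoints. Abbreviation: GI50, concentration required for 50% inhibition of growth.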 The source holds more than one record for some entries. This is not the full list of results. There may be further records. For some assays here: A record mostly stands for its own series of concentrations, not given here; some values may only mark the edge of a range. For some assays here: Results that share an entry repeat one measurement (runs, samples, wells, individuals or studies). Brackets tell where a record comes from. A, B and so on number the origins entry by entry.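 TGI marks complete inhibition of growth.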

What was measured:
Assay in all cases: NCI tumour cell line growth inhibition, 48 h
MDA-MB-435 = test system: MDA-MB-435
RPMI-8226 leukemia = test system: RPMI-8226 leukemia
LOX IMVI melanoma = test system: LOX IMVI melanoma
PC-3 prostate = test system: PC-3 prostate
HS 578T breast = test system: HS 578T breast
SF-268 CNS = test system: SF-268 CNS
KM12 colon = test system: KM12 colon
HT29 colon = test system: HT29 colon
MOLT-4 leukemia = test system: MOLT-4 leukemia
CCRF-CEM leukemia = test system: CCRF-CEM leukemia
UACC-62 melanoma = test system: UACC-62 melanoma
MALME-3M melanoma = test system: MALME-3M melanoma
M14 melanoma = test system: M14 melanoma
COLO 205 colon = test system: COLO 205 colon
IGROV1 ovarian = test system: IGROV1 ovarian
TK-10 renal = test system: TK-10 renal
NCI-H522 lung = test system: NCI-H522 lung
A549 NSCLC = test system: A549 NSCLC
SF-539 CNS = test system: SF-539 CNS
XF 498 CNS = test system: XF 498 CNS
SK-MEL-5 melanoma = test system: SK-MEL-5 melanoma
SN12C renal = test system: SN12C renal
SNB-19 CNS = test system: SNB-19 CNS
EKVX NSCLC = test system: EKVX NSCLC
SN12K1 renal = test system: SN12K1 renal
SNB-75 CNS = test system: SNB-75 CNS
OVCAR-3 ovarian = test system: OVCAR-3 ovarian
P388 leukemia = test system: P388 leukemia
SNB-78 CNS = test system: SNB-78 CNS
RXF 393 renal = test system: RXF 393 renal
HCC-2998 colon = test system: HCC-2998 colon
SK-MEL-28 melanoma = test system: SK-MEL-28 melanoma
SF-295 CNS = test system: SF-295 CNS
NCI-H226 lung = test system: NCI-H226 lung
NCI-H23 lung = test system: NCI-H23 lung
SK-OV-3 ovarian = test system: SK-OV-3 ovarian
SR leukemia = test system: SR leukemia

Compound: CCCCCCCCCC[C@@H](O)[C@@H]1CC[C@@H]([C@@H]2CC[C@@H]([C@@H](O)CCCCCCCCCC[C@H](O)CC3=CC(C)OC3=O)O2)O1 (some centres undefined)
- TGI (MDA-MB-435): 5.18 µM and > 100 µM
- TGI (RPMI-8226 leukemia): 8.3 µM and > 100 µM
- TGI (LOX IMVI melanoma): 4.52 µM and > 100 µM
- TGI (PC-3 prostate): 8.47 µM and > 100 µM
- TGI (HS 578T breast): 7.96 µM and 81.9 µM
- TGI (SF-268 CNS): 9.6 µM and > 100 µM
- TGI (KM12 colon): 9.77 µM and > 100 µM
- TGI (HT29 colon): 5.71 µM and > 100 µM
- TGI (MOLT-4 leukemia): 6.93 µM and > 100 µM
- TGI (CCRF-CEM leukemia): 7.27 µM and > 100 µM
- TGI (UACC-62 melanoma): 7.3 µM and 98.7 µM

Compound: CN1CCN(c2ccc(OC(F)(F)F)c(Nc3ncc4c(n3)-c3c(c(C(N)=O)nn3CCO)CC4)c2)CC1
- GI50 (MALME-3M melanoma): 14.1 µM [sample A, mean of 2 tests] and 404 nM [sample B, mean of 2 tests]
- TGI (M14 melanoma): 18.8 µM [sample A, mean of 2 tests] and 299 nM [sample B, mean of 2 tests]
- TGI (COLO 205 colon): 14 µM [sample A, mean of 2 tests] and 321 nM [sample B, mean of 2 tests]
- GI50 (IGROV1 ovarian): 853 nM [sample A, mean of 2 tests] and 81.6 nM [sample B, mean of 2 tests]
- TGI (TK-10 renal): 52 µM [sample A, mean of 2 tests] and 2.15 µM [sample B, 1 test]
- TGI (NCI-H522 lung): 12 µM [sample A, mean of 2 tests] and 379 nM [sample B, mean of 2 tests]

Compound: C[C@H]1C/C=C/[C@H]2[C@@H]3O[C@]3(C)[C@@H](C)[C@H]3[C@H](Cc4ccccc4)NC(=O)[C@]32OC(=O)O/C=C/[C@@](C)(O)C1=O
- TGI (A549 NSCLC): 94.5 µM, 12.5 µM, 137 µM
- TGI (SF-539 CNS): 137 nM, 34.7 nM, 27.1 µM
- TGI (XF 498 CNS): 480 nM and < 25 nM
- TGI (LOX IMVI melanoma): 7.2 µM, 125 µM, 65.5 µM
- TGI (SK-MEL-5 melanoma): 1.14 µM, 15.5 µM, 275 nM
- TGI (SN12C renal): 82.9 µM and < 25 nM
- TGI (SNB-19 CNS): 8.34 µM and 73.9 nM
- TGI (EKVX NSCLC): 6.88 µM, 125 µM, > 250 µM
- TGI (SN12K1 renal): 299 nM and 125 µM
- TGI (SNB-75 CNS): 81.9 nM and > 250 µM
- TGI (OVCAR-3 ovarian): 18.8 µM and 1.7 µM
- GI50 (P388 leukemia): 12.5 nM and 142 nM
- TGI (SNB-78 CNS): 63.1 nM, 67.2 µM, 62.5 nM
- TGI (RXF 393 renal): 33.8 nM and 435 nM
- TGI (SF-268 CNS): 6.82 µM, 125 µM, > 250 µM
- TGI (HCC-2998 colon): 15.6 µM, 25.6 µM, 2.5 µM
- TGI (SK-MEL-28 melanoma): 7.58 µM, 92 µM, > 250 µM
- TGI (SF-295 CNS): 33.3 nM [1 test] and 20.6 µM [mean of 10 tests]
- TGI (NCI-H226 lung): 5.44 µM and 67 µM
- TGI (NCI-H23 lung): 24.3 µM, 125 µM, > 250 µM
- TGI (MOLT-4 leukemia): 83.8 µM, 7.58 µM, 3.32 µM
- TGI (SK-OV-3 ovarian): 1.47 µM and 138 nM
- TGI (UACC-62 melanoma): 9.17 µM, 125 µM, > 250 µM

Compound: CCOC(=O)C(Cc1c[nH]c2cc(N(CCO)CCO)ccc12)(NC(C)=O)C(=O)OCC
- GI50 (SNB-75 CNS): 38 µM and > 1 mM
- TGI (SR leukemia): 82.8 µM and > 1 mM

Compound: CCOC(=O)Nc1nc2ccccc2[nH]1
- GI50 (SN12C renal): > 100 µM [sample A, 1 test] and 6.73 µM [sample B, 1 test]
- GI50 (NCI-H226 lung): 5.91 µM [sample A, mean of 2 tests] and > 100 µM [sample B, mean of 2 tests]
